Test results: the RNAGym collection of RNA variant scans (doi:10.1073/pnas.2313332121)
Variants at the background level are over-represented here.

B1: TPR 5TU (parent)
chain: GGAUCUUCUCGAUCUAACAAAAAAGACAAAUCUGCCACAAAGCUUGAGAGCAUCUUCGGAUGCAGAGGCGGCAGCCUUCGGUGGCGCGAUAGCGCCAACGUUCUCAACUAUGACACGCAAAACGCGUGCUCCGUUGAAUGGAGUUUAUCAUG

Variants of: B1
Test: polymerase ribozyme fitness, log enrichment relative to wild type (log ratio); higher = more active; in vitro selection for triplet polymerase activity
Summary of the method: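 To select mutant libraries of each subunit of a heterodimeric triplet polymerase ribozyme, built by PCR and transcribed, each was annealed with a biotinylated primer, partner subunit and triplets, then incubated frozen at −7 °C. Extended constructs were gel-excised, captured on streptavidin beads and amplified by RT-PCR, in one round carried out in triplicate. Illumina sequencing of input and output libraries kept genotypes with ≥10 input reads and ≥1 read per output. Fitness is the base-2 logarithm of genotype enrichment relative to wild-type enrichment, from inverse-variance-weighted replicate averages.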

C51U A73U U78G G84A G126U and A52C C76G cannot be ordered by “polymerase ribozyme fitness (log ratio)” value: no more than -4.2 for the first, no more than -4.2 for the second.

A52C C76A and A52C A73G A138G cannot be ordered by “polymerase ribozyme fitness (log ratio)” value: no more than -4.2 for the first, no more than -4.2 for the second.

A52G A60G C85A C95G A97G U102A C125A and A52C A89G U127A cannot be ordered by “polymerase ribozyme fitness (log ratio)” value: no more than -4.2 for the first, no more than -4.2 for the second.

A52G C57A C79U C85A C116U A122G and A52C A64U cannot be ordered by “polymerase ribozyme fitness (log ratio)” value: no more than -4.2 for the first, no more than -4.2 for the second.

Going from A52C A60C to A52G U111G U139C G140C G143U, the “polymerase ribozyme fitness (log ratio)” value falls from -2.71 to no more than -4.2.

A52G C54A A106G C129G U144G A147U and U53A C87G cannot be ordered by “polymerase ribozyme fitness (log ratio)” value: no more than -4.2 for the first, no more than -4.2 for the second.

A52C G68A U78A A115C A138U and A52G U53G G67U C93G A110G cannot be ordered by “polymerase ribozyme fitness (log ratio)” value: no more than -4.2 for the first, no more than -4.2 for the second.

A52C G80C C93A G94U U101G A142G and A52G U53A G84U A107G G141U cannot be ordered by “polymerase ribozyme fitness (log ratio)” value: no more than -4.2 for the first, no more than -4.2 for the second.

A52C A60C G80A G117C U134C and A52C U55A G59C U78A A89C G94C U144C cannot be ordered by “polymerase ribozyme fitness (log ratio)” value: no more than -4.2 for the first, no more than -4.2 for the second.

A52C C93U U102G and C51U G59U U82G C87U A97C A107C C108A cannot be ordered by “polymerase ribozyme fitness (log ratio)” value: no more than -4.2 for the first, no more than -4.2 for the second.

A52G A66C C69A C93A A98U C118G U139G and A52G G86A U102A U135G cannot be ordered by “polymerase ribozyme fitness (log ratio)” value: no more than -4.2 for the first, no more than -4.2 for the second.

First: A52C U102C U135C
Second: A52C G70A
The “polymerase ribozyme fitness (log ratio)” value of the first is lower: no more than -4.2 for the first, -3.92 for the second.

A52U C96G A97G C108G and A52U G67C G94A C95U G117U G126U U130A cannot be ordered by “polymerase ribozyme fitness (log ratio)” value: no more than -4.2 for the first, no more than -4.2 for the second.

C51U G68A C96U G143C and C51U U55A A64C G65C C95A C99A C114A cannot be ordered by “polymerase ribozyme fitness (log ratio)” value: no more than -4.2 for the first, no more than -4.2 for the second.

C51U G65A C76U C85U C116U U151C and A52U U55A G65U C93G cannot be ordered by “polymerase ribozyme fitness (log ratio)” value: no more than -4.2 for the first, no more than -4.2 for the second.

C51U U55A G70U C79A G81C C87A G133U and A52G C54A G84U A110U cannot be ordered by “polymerase ribozyme fitness (log ratio)” value: no more than -4.2 for the first, no more than -4.2 for the second.

U53A C95U C96A C129G U139A U148G and U53A C103A A120C G124A U134A cannot be ordered by “polymerase ribozyme fitness (log ratio)” value: no more than -4.2 for the first, no more than -4.2 for the second.

U53A C85A C93U G141C U151A and A52G A60C U61A G74U C96G cannot be ordered by “polymerase ribozyme fitness (log ratio)” value: no more than -4.2 for the first, no more than -4.2 for the second.

Going from A52G G83A to C51U G84C C87A C95A A122C A137U G141C, the “polymerase ribozyme fitness (log ratio)” value falls from -0.0714 to no more than -4.2.

A52G G92U U101A U111A and A52G U77G A97G C116U cannot be ordered by “polymerase ribozyme fitness (log ratio)” value: no more than -4.2 for the first, no more than -4.2 for the second.

C51U G80C A91G G94A and A52U G67A C75U G94C G112A cannot be ordered by “polymerase ribozyme fitness (log ratio)” value: no more than -4.2 for the first, no more than -4.2 for the second.

A52C G70A C72A C93U A97U U148G and A52U C87G C99U cannot be ordered by “polymerase ribozyme fitness (log ratio)” value: no more than -4.2 for the first, no more than -4.2 for the second.

A52G C72U G84U C87G C149G and A52C C85A C93U C96G A121C U146C cannot be ordered by “polymerase ribozyme fitness (log ratio)” value: no more than -4.2 for the first, no more than -4.2 for the second.

First: C51U G68C G83U U102G
Second: A52C G84A U130C
The “polymerase ribozyme fitness (log ratio)” value of the first is lower: no more than -4.2 for the first, -0.715 for the second.

A52U U56G G67C C103G U139C and A52G G65A C108G cannot be ordered by “polymerase ribozyme fitness (log ratio)” value: no more than -4.2 for the first, no more than -4.2 for the second.

U53A C72G U82G C149U and A52G U56A G68U C87A U145G cannot be ordered by “polymerase ribozyme fitness (log ratio)” value: no more than -4.2 for the first, no more than -4.2 for the second.

A52C U53A G86C C132G and C51U U53C U55A C75A C95U U134C A150U cannot be ordered by “polymerase ribozyme fitness (log ratio)” value: no more than -4.2 for the first, no more than -4.2 for the second.

Going from C51U C57A G67A C76U U148A C149A to A52C G83C, the “polymerase ribozyme fitness (log ratio)” value rises from no more than -4.2 to -2.29.

A52C G58C C132A and C51U G124A G133C G140A A150G cannot be ordered by “polymerase ribozyme fitness (log ratio)” value: no more than -4.2 for the first, no more than -4.2 for the second.

C51U C75G A137C and U53A C93G A98G cannot be ordered by “polymerase ribozyme fitness (log ratio)” value: no more than -4.2 for the first, no more than -4.2 for the second.

Going from U53A C54A U82A G141C to U53A C87U A137U A138U, the “polymerase ribozyme fitness (log ratio)” value falls from -2.84 to no more than -4.2.

A52G G67C A147C and A52C U55A A91G U111A U139G cannot be ordered by “polymerase ribozyme fitness (log ratio)” value: no more than -4.2 for the first, no more than -4.2 for the second.

C51U A66C G74A U90G U111G and A52G C87A cannot be ordered by “polymerase ribozyme fitness (log ratio)” value: no more than -4.2 for the first, no more than -4.2 for the second.

First: A52G C87U
Second: A52C U56A U111C
The “polymerase ribozyme fitness (log ratio)” value of the first is higher: -1.3 for the first, no more than -4.2 for the second.

A52C C54U U55G G67C G71U C85U G143C and A52G C96G A97U U148G cannot be ordered by “polymerase ribozyme fitness (log ratio)” value: no more than -4.2 for the first, no more than -4.2 for the second.

Going from A52C U55A C72U A98U to A52G C57A C72A G81A C85G, the “polymerase ribozyme fitness (log ratio)” value falls from -3.14 to no more than -4.2.

U53A C93U G133A A138G A142G and A52G G58C G62U A119G U127C cannot be ordered by “polymerase ribozyme fitness (log ratio)” value: no more than -4.2 for the first, no more than -4.2 for the second.

A52C U56A G68C G83A and U53A C57G U102G G112U A137G G143C cannot be ordered by “polymerase ribozyme fitness (log ratio)” value: no more than -4.2 for the first, no more than -4.2 for the second.

First: A52G A60C C95U C96U A97U
Second: C51U C103A A121C
The “polymerase ribozyme fitness (log ratio)” value of the first is lower: no more than -4.2 for the first, -1 for the second.

A52C G65A U78A A91U U135C A138C U144G and A52C U55G C79U C85U A91G C114U cannot be ordered by “polymerase ribozyme fitness (log ratio)” value: no more than -4.2 for the first, no more than -4.2 for the second.

First: C51G U53G C75A C103A
Second: A52G U148G
The “polymerase ribozyme fitness (log ratio)” value of the first is lower: no more than -4.2 for the first, -4.18 for the second.

A52C C57A C149G and A52U C85G G92A C118A A120U cannot be ordered by “polymerase ribozyme fitness (log ratio)” value: no more than -4.2 for the first, no more than -4.2 for the second.
